± gives the standard deviation. The list shows a part of the results, in another mix than the full data.
Each sequence was assayed on MIWI (PIWIL1) piRISC loaded with piRNA #1 (30 nt) (assay: pre-steady-state target cleavage rate (min^-1); MIWI and MILI are mouse PIWI proteins and EfPiwi is from a freshwater sponge; tags in brackets are library labels; higher = faster piRNA-guided slicing of the target). Settings: guide: piRNA #1 5'p-UGAGGUAGUAGGUUGUAUAGUAUCCAGAGG; auxiliary factor: 500 nM mouse GTSF1.
Method in brief: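 A transcribed, DNA-blocked target RNA library […] was incubated at 33 °C for 0–8 or 0–960 min with 1 nM active affinity-purified piRISC carrying one synthetic guide, in HEPES–potassium acetate buffer with or without 500 nM GTSF1 partner protein. Uncleaved targets were then sequenced and normalised to depth and to weakly complementary targets. Data from three trials were pooled, with k3 capped at 0.0001 min^-1, and a burst-and-steady-state fit yielded the pre-steady-state cleavage rate.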
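Further: 1 nM active piRISC with 0.1 nM target library at 33 °C single turnover.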

| Sequence | pre-steady-state target cleavage rate |
| --- | --- |
| CCUCUGGAUACUAUACUACCUACUACCUGA | 0.9 ± 0.088 |
| GGAGACCAAUACUAUACAACCUACUACCUCA | 1.69 ± 0.11 |
| GGAGACCUAACUAUACAACCUACUACCUUCA | 0.679 ± 0.059 |
| GGAGACCUAUCUAUACAACCUACUAUCCUCA | 0.791 ± 0.087 |
| GCUCUGGAUACUAUACAACCUACUAGCCUCA | 1.17 ± 0.061 |
| GGAGACCUAUCUAUACAACCUACUUCCUCA | 0.199 ± 0.024 |
| GGAGUGGAUACUAUACAACCUACUACCGUCA | 0.0556 ± 0.0087 |
| GGAGAGGAAACUAUAGAACCUACUACCUCA | 1.02 ± 0.057 |
| GGAGUGGUUACUAUAGAACCUACUACCUCA | 1.24 ± 0.08 |
| GCUCUGGAUACUUAACAACCUACUACCUCA | 1.32 ± 0.093 |
| GGAGACCUUACUAUACAACGUACUACCUGA | 0.186 ± 0.022 |
| GGAGACCUAUCUAUACAACCUACCACCUCA | 0.678 ± 0.06 |
| GGAGACCAUACUAUACAUCCUACUACCUCA | 1.23 ± 0.082 |
| GGAGAGGAUACUAUACAACGUACUACGUCA | 0.483 ± 0.059 |
| GGAGACCUAUGAUAUGUUGCUUGAACCUCA | < 0.0001 |
| GCUCUGGAUGCUAUACAACCUACUACCUCA | 1.93 ± 0.15 |
| GGAGUGGAUACUAUACACCCUACUACCUCA | 1.7 ± 0.098 |
| GCUCUGGAAACUAUACAACCUACUUCCUCA | 0.296 ± 0.041 |
| GGUCUGGAUACAAUACAACCUAGUACCUCA | 0.562 ± 0.054 |
| GGACUGGAUACUAUACUACGUACUACCUCA | 0.365 ± 0.055 |
| GGUCUGGAUACUAUACAACCUACUACUCUCA | 1.2 ± 0.1 |
| GGACUGGAUACUAAUACAACCUACUACCUCA | 1.55 ± 0.13 |
| GGAGACCUAACUUUACAACCUACUACCACA | 0.114 ± 0.035 |
| GGACUGGAAACUAUACUACCUACUACCUCA | 0.573 ± 0.083 |
